Data taken from the domain aggregation screens of Martell et al. (2025).

Assay: soluble fraction after stress (log2 fold change); higher = more stays soluble; pooled small domains, quantitative proteomics
Conditions: stress: pH 4
How it was run: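 High-throughput quantitative proteomics was run on pooled custom libraries of small protein domains following pH 4 stress. Fold changes are on a log2 scale; higher values mean more of a domain remained soluble. The fold change in soluble amount is taken as a measure of aggregation propensity.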

Compared with “HMAKGTVKWFNETKGYGFIAPEGGKKDVFVHITALERAGLRGLKDGQAVNFDIEAGRDGRESAINITL”, “HMAMINTVQPILVEGLSKKNNDTLFGRTENNRVVNFEGSRSLIGNFVNIKITEALSNSLRGIIQS” is higher in “soluble fraction (log2)” value: -0.88 for the first, -0.315 for the second.

Going from “HMDEEMLELVEMEMRELLSFYDFDGDNTPIIRGSALGALNGVPQWEDKVMELMDAVDTWIPLP” to “HMGMVGTNHRILVDGVSRKNAGHLSGRTENNRVVNFAAGEASIGDFRDVRITEALPNSLRAEVLG”, the “soluble fraction (log2)” value rises from -1.46 to 0.0742.

First: HMKVDQVDDAELLDLVEMEIRELLSSYDFPGDDVPIVKGSALAAVEDRDEAIGKNSIIELMSKVDEYIPAP
Second: HMQPVNIEPRSPLHAQVLLDRANFSPGQIDGEVGSNQRRAVSGLQAARGLKVTGELDEETWQALQAD
The “soluble fraction (log2)” value of the first is lower: -1.38 for the first, -0.285 for the second.

Going from “HMSASHYDVLNLKKTASETEIKKAYRKLAVEYHPDKVMNLGEEYQKAAKEKFQKVQEAYEQIKLERGI” to “HMVDDEELLDLVEMEVRELLDDYEFPGDDTPIIRGSALMALEDPAGPWGDKIVELFEAVDSYIP”, the “soluble fraction (log2)” value falls from -0.0234 to -1.48.

In the case of “HMYDTKLTTQDAADYLGISRPTLEKLLEQGDIPFTRVGRHRRVMLSDLQHYAVTQHDKNMQIFDAIAA”, the “soluble fraction (log2)” value is reported as 0.0865.
